# Results from the supplement of paper PMC4967469.
# Tests used:
# Test in all cases: Viability of human cancer cell lines after 72 h of drug (GDSC screen)
# Tubastatin A = compound: CN1CCc2c(c3ccccc3n2Cc2ccc(C(=O)NO)cc2)C1 [Tubastatin A]; details: top dose 20 µM
# Description: (§1)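 Human cancer cell lines in 384-well plates, medium with 10% serum, drug for 72 h over a 256-fold dose range (nine 2-fold or five 4-fold steps up to the top dose). Adherent lines were fixed and stained with the nucleic acid dye Syto60, suspension lines read with resazurin; signal relative to control wells, capped at 0 and 100%. One two-parameter sigmoid per drug and line, fitted in a mixed model over all curves with the slope shared within a line.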
# XL-880 = compound: COc1cc2c(Oc3ccc(NC(=O)C4(C(=O)Nc5ccc(F)cc5)CC4)cc3F)ccnc2cc1OCCCN1CCOCC1 [XL-880]; details: top dose 5.12 µM; top dose inferred
# Description: as §1
# Temozolomide = compound: Cn1nnc2c(C(N)=O)ncn2c1=O [Temozolomide]; details: top dose 30 µM
# Description: as §1
# CI-1040 = compound: O=C(NOCC1CC1)c1ccc(F)c(F)c1Nc1ccc(I)cc1Cl [CI-1040]; details: top dose 10 µM; top dose inferred
# Description: as §1
# IPA-3 = compound: Oc1ccc2ccccc2c1SSc1c(O)ccc2ccccc12 [IPA-3]; details: top dose 32 µM; top dose inferred
# Description: as §1
cell line,measurement,setting,value
"NCI-H2405 (lung adenocarcinoma, adherent)",AUC,Tubastatin A,0.986
same,IC50,Tubastatin A,> 20 µM
same,AUC,XL-880,0.773
same,IC50,XL-880,2.21 µM
same,AUC,Temozolomide,0.976
same,IC50,Temozolomide,> 30 µM
same,AUC,CI-1040,0.944
same,IC50,CI-1040,> 10 µM
same,AUC,IPA-3,0.697
same,IC50,IPA-3,7.63 µM
"HCC1143 (breast, adherent)",AUC,Tubastatin A,0.965
same,IC50,Tubastatin A,> 20 µM
same,AUC,XL-880,0.635
same,IC50,XL-880,0.881 µM
same,AUC,Temozolomide,0.977
same,IC50,Temozolomide,> 30 µM
same,AUC,CI-1040,0.79
same,IC50,CI-1040,6.59 µM
same,AUC,IPA-3,0.844
same,IC50,IPA-3,> 32 µM
"MC-IXC (neuroblastoma, adherent)",AUC,Tubastatin A,0.965
same,IC50,Tubastatin A,> 20 µM
same,AUC,XL-880,0.643
same,IC50,XL-880,0.709 µM
same,AUC,Temozolomide,0.996
same,IC50,Temozolomide,> 30 µM
same,AUC,CI-1040,0.936
same,IC50,CI-1040,9.22 µM
same,AUC,IPA-3,0.797
same,IC50,IPA-3,10.8 µM
"JHH-6 (liver, adherent)",AUC,Tubastatin A,0.979
same,IC50,Tubastatin A,> 20 µM
same,AUC,XL-880,0.736
same,IC50,XL-880,1.53 µM
same,AUC,Temozolomide,0.985
same,IC50,Temozolomide,> 30 µM
same,AUC,CI-1040,0.877
same,IC50,CI-1040,> 10 µM
same,AUC,IPA-3,0.976
same,IC50,IPA-3,> 32 µM
"SW756 (cervix, adherent)",AUC,Tubastatin A,0.984
same,IC50,Tubastatin A,> 20 µM
same,AUC,XL-880,0.959
same,IC50,XL-880,> 5.12 µM
same,AUC,Temozolomide,0.942
same,IC50,Temozolomide,> 30 µM
same,AUC,CI-1040,0.877
same,IC50,CI-1040,> 10 µM
same,AUC,IPA-3,0.973
same,IC50,IPA-3,> 32 µM
"FU-OV-1 (ovary, adherent)",AUC,Tubastatin A,0.979
same,IC50,Tubastatin A,> 20 µM
same,AUC,XL-880,0.625
same,IC50,XL-880,0.792 µM
same,AUC,Temozolomide,0.968
same,IC50,Temozolomide,> 30 µM
same,AUC,CI-1040,0.851
same,IC50,CI-1040,> 10 µM
same,AUC,IPA-3,0.969
same,IC50,IPA-3,> 32 µM
"HDQ-P1 (breast, adherent)",AUC,Tubastatin A,0.924
same,IC50,Tubastatin A,> 20 µM
same,AUC,XL-880,0.788
same,IC50,XL-880,2.73 µM
same,AUC,Temozolomide,0.983
same,IC50,Temozolomide,> 30 µM
same,AUC,CI-1040,0.834
same,IC50,CI-1040,8.39 µM
same,AUC,IPA-3,0.875
same,IC50,IPA-3,> 32 µM
"PCI-15A (head and neck, adherent)",AUC,Tubastatin A,0.987
same,IC50,Tubastatin A,> 20 µM
same,AUC,XL-880,0.987
same,IC50,XL-880,> 5.12 µM
same,AUC,Temozolomide,0.986
same,IC50,Temozolomide,> 30 µM
same,AUC,CI-1040,0.984
same,IC50,CI-1040,> 10 µM
same,AUC,IPA-3,0.856
same,IC50,IPA-3,26.2 µM
"SK-OV-3 (ovary, adherent)",AUC,Tubastatin A,0.945
same,IC50,Tubastatin A,> 20 µM
same,AUC,XL-880,0.633
same,IC50,XL-880,0.821 µM
same,AUC,Temozolomide,0.969
same,IC50,Temozolomide,> 30 µM
same,AUC,CI-1040,0.913
same,IC50,CI-1040,> 10 µM
same,AUC,IPA-3,0.836
same,IC50,IPA-3,29.3 µM
"OVCAR-5 (ovary, adherent)",AUC,Tubastatin A,0.93
same,IC50,Tubastatin A,> 20 µM
same,AUC,XL-880,0.665
same,IC50,XL-880,1.02 µM
same,AUC,Temozolomide,0.977
same,IC50,Temozolomide,> 30 µM
same,AUC,CI-1040,0.594
same,IC50,CI-1040,1.19 µM
same,AUC,IPA-3,0.816
same,IC50,IPA-3,22.5 µM
"LN-405 (glioma, adherent)",AUC,Tubastatin A,0.981
same,IC50,Tubastatin A,> 20 µM
same,AUC,XL-880,0.747
same,IC50,XL-880,2.01 µM
same,AUC,Temozolomide,0.982
same,IC50,Temozolomide,> 30 µM
same,AUC,CI-1040,0.972
same,IC50,CI-1040,> 10 µM
same,AUC,IPA-3,0.979
same,IC50,IPA-3,> 32 µM
"SK-HEP-1 (liver, adherent)",AUC,Tubastatin A,0.976
same,IC50,Tubastatin A,> 20 µM
same,AUC,XL-880,0.793
same,IC50,XL-880,2.17 µM
same,AUC,Temozolomide,0.987
same,IC50,Temozolomide,> 30 µM
same,AUC,CI-1040,0.774
same,IC50,CI-1040,3.67 µM
same,AUC,IPA-3,0.87
same,IC50,IPA-3,26.6 µM
"NCI-H3122 (lung adenocarcinoma, adherent)",AUC,Tubastatin A,0.923
same,IC50,Tubastatin A,> 20 µM
same,AUC,XL-880,0.668
same,IC50,XL-880,0.956 µM
same,AUC,Temozolomide,0.985
same,IC50,Temozolomide,> 30 µM
same,AUC,CI-1040,0.812
same,IC50,CI-1040,5.55 µM
same,AUC,IPA-3,0.862
same,IC50,IPA-3,28.9 µM
"HT-1376 (bladder, adherent)",AUC,Tubastatin A,0.985
same,IC50,Tubastatin A,> 20 µM
same,AUC,XL-880,0.985
same,IC50,XL-880,> 5.12 µM
same,AUC,Temozolomide,0.969
same,IC50,Temozolomide,> 30 µM
same,AUC,CI-1040,0.941
same,IC50,CI-1040,> 10 µM
same,AUC,IPA-3,0.978
same,IC50,IPA-3,> 32 µM
"EFM-19 (breast, adherent)",AUC,Tubastatin A,0.85
same,IC50,Tubastatin A,> 20 µM
same,AUC,XL-880,0.726
same,IC50,XL-880,2 µM
same,AUC,Temozolomide,0.957
same,IC50,Temozolomide,> 30 µM
same,AUC,CI-1040,0.935
same,IC50,CI-1040,> 10 µM
same,AUC,IPA-3,0.783
same,IC50,IPA-3,21.7 µM
"CAL-72 (osteosarcoma, adherent)",AUC,Tubastatin A,0.983
same,IC50,Tubastatin A,> 20 µM
same,AUC,XL-880,0.902
same,IC50,XL-880,> 5.12 µM
same,AUC,Temozolomide,0.971
same,IC50,Temozolomide,> 30 µM
same,AUC,CI-1040,0.76
same,IC50,CI-1040,4.11 µM
same,AUC,IPA-3,0.818
same,IC50,IPA-3,22.4 µM
"KYSE-70 (oesophagus, adherent)",AUC,Tubastatin A,0.984
same,IC50,Tubastatin A,> 20 µM
same,AUC,XL-880,0.845
same,IC50,XL-880,4.2 µM
same,AUC,Temozolomide,0.971
same,IC50,Temozolomide,> 30 µM
same,AUC,CI-1040,0.889
same,IC50,CI-1040,> 10 µM
same,AUC,IPA-3,0.867
same,IC50,IPA-3,> 32 µM
"OSC-20 (head and neck, adherent)",AUC,Tubastatin A,0.959
same,IC50,Tubastatin A,> 20 µM
same,AUC,XL-880,0.604
same,IC50,XL-880,0.654 µM
same,AUC,Temozolomide,0.957
same,IC50,Temozolomide,> 30 µM
same,AUC,CI-1040,0.824
same,IC50,CI-1040,7.52 µM
same,AUC,IPA-3,0.857
same,IC50,IPA-3,> 32 µM
"CAL-39 (cervix, adherent)",AUC,Tubastatin A,0.97
same,IC50,Tubastatin A,> 20 µM
same,AUC,XL-880,0.594
same,IC50,XL-880,0.585 µM
same,AUC,Temozolomide,0.983
same,IC50,Temozolomide,> 30 µM
same,AUC,CI-1040,0.672
same,IC50,CI-1040,1.93 µM
same,AUC,IPA-3,0.863
same,IC50,IPA-3,29.4 µM
"PA-TU-8902 (pancreas, adherent)",AUC,Tubastatin A,0.979
same,IC50,Tubastatin A,> 20 µM
same,AUC,XL-880,0.625
same,IC50,XL-880,0.75 µM
same,AUC,Temozolomide,0.981
same,IC50,Temozolomide,> 30 µM
same,AUC,CI-1040,0.709
same,IC50,CI-1040,2.72 µM
same,AUC,IPA-3,0.983
same,IC50,IPA-3,> 32 µM
"Daoy (medulloblastoma, adherent)",AUC,Tubastatin A,0.809
same,IC50,Tubastatin A,9.28 µM
same,AUC,XL-880,0.706
same,IC50,XL-880,1.15 µM
same,AUC,Temozolomide,0.982
same,IC50,Temozolomide,> 30 µM
same,AUC,CI-1040,0.927
same,IC50,CI-1040,> 10 µM
same,AUC,IPA-3,0.614
same,IC50,IPA-3,3.99 µM
"NCI-H838 (lung adenocarcinoma, adherent)",AUC,Tubastatin A,0.962
same,IC50,Tubastatin A,> 20 µM
same,AUC,XL-880,0.696
same,IC50,XL-880,1.16 µM
same,AUC,Temozolomide,0.985
same,IC50,Temozolomide,> 30 µM
same,AUC,CI-1040,0.891
same,IC50,CI-1040,> 10 µM
same,AUC,IPA-3,0.972
same,IC50,IPA-3,> 32 µM
"C-33-A (cervix, adherent)",AUC,Tubastatin A,0.871
same,IC50,Tubastatin A,19 µM
same,AUC,XL-880,0.575
same,IC50,XL-880,0.513 µM
same,AUC,Temozolomide,0.98
same,IC50,Temozolomide,> 30 µM
same,AUC,CI-1040,0.919
same,IC50,CI-1040,> 10 µM
same,AUC,IPA-3,0.982
same,IC50,IPA-3,> 32 µM

# The IC50 comes from the fitted curve, where viability falls to half of the control; where the fit passes the top or lowest dose, that dose stands as a limit. AUC, from the same fit, is the share of area under the viability curve across the 256-fold dose range: 1 means no effect, lower means more sensitive. For some assays here: An inferred top dose is not printed in the source and was worked back from the curve model.
